According to article PMC4336329 (PLoS ONE, 2015):
The campaign covered roughly 310,000 compounds. About 2,200 (0.71%) showed an effect of 50% or more. The effect is printed as a negative number. Some of the results follow.

The compounds below were run against human ether-à-go-go-related gene (hERG) potassium channel (human, UniProt Q12809) (assay: primary screen, population patch clamp on CHO cells stably expressing hERG).
Sequence of human ether-à-go-go-related gene (hERG) potassium channel (Q12809 whole entry, looked up): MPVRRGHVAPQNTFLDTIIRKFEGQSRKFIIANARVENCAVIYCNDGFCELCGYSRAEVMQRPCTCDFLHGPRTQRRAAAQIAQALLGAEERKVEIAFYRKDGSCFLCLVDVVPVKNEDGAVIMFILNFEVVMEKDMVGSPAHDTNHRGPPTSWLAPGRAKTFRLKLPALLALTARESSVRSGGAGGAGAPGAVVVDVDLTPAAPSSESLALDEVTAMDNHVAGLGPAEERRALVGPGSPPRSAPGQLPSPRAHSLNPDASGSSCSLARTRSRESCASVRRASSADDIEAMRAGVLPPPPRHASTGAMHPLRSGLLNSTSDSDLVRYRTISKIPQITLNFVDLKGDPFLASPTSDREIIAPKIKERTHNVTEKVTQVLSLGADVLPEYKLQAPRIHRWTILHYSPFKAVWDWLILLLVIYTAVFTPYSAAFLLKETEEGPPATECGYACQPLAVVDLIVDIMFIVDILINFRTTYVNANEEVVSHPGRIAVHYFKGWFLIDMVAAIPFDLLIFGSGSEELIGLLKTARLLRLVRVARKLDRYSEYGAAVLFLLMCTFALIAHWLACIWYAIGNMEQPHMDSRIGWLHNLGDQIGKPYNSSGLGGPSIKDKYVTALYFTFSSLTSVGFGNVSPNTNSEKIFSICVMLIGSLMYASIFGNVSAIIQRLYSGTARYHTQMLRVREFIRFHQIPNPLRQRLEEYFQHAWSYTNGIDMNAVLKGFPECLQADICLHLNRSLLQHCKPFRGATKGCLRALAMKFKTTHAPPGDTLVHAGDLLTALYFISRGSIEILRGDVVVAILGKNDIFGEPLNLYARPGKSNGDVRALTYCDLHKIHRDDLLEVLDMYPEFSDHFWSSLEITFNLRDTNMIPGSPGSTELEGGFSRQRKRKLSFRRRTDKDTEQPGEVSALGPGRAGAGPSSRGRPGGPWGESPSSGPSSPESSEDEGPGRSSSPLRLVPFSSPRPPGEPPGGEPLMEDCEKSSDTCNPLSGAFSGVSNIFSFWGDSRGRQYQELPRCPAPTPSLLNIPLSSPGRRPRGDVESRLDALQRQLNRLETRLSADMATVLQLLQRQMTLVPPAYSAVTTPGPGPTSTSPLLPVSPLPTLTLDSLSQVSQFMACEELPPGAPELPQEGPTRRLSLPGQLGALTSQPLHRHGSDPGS

SMILES	hERG current change (%, negative = inhibition) at 1uM
CCOc1ccc(Cl)cc1S(=O)(=O)NCc1cccnc1	-7.65%
Clc1ccc(-c2cn3c(n2)-c2ccccc2C3)cc1Cl	14.5%
O=C(N/N=C1\CC(c2ccccc2)Oc2ccccc21)c1ccc(O)cc1 (centres unmarked)	20.6%
Cc1ccc(NC(=O)C(=O)c2c(-c3ccccc3)cc3ccccn23)cc1S(=O)(=O)N1CCOCC1	-9.49%
COC(=O)C(C)Sc1ccc2nnc(-c3ccc(F)cc3)n2n1 (centres unmarked)	-6.46%
Cc1ccc(C(=O)Nc2cc(=O)n(C)c(=O)n2C)o1	15.6%
COc1ccc(-n2c(-c3ccc(Cl)cc3)c[n+]3c2CCc2ccccc2-3)cc1.[Br-]	-70.3%
Cc1cc(F)c(F)c(C(=O)NC2CC2)c1Cl	3.06%
O=C1C=C(NC(=O)Nc2ccc(Cl)c(Cl)c2)CCC1	16.9%
Cc1nc(Sc2cccn2C)c(C(F)(F)F)c(=O)[nH]1	-1.13%
Cc1nn(CC(=O)NCCc2ccc(Cl)cc2)c(=O)c2cccn12	-5.96%
COc1ccccc1-c1c(NC(=O)C(C)C)n(C)c2ccccc2c1=O	10.3%
COc1ccc(CC(=O)c2cc(OC)c(OC)cc2CC(=O)O)cc1OC	8.05%
C[C@@H]1[C@H](O)C[C@@]23COC(=O)C2=CCC[C@@H]3[C@@]1(C)CC/C(=C/CO)CO	13.6%
CCCCn1c(SCC(=O)c2cc(OC)ccc2OC)nc2cc(S(N)(=O)=O)ccc21	4.9%
CN1C(=O)S/C(=C/c2cccn2-c2cccc(C(=O)O)c2)C1=O	9.99%
CCCCC(CC)C(=O)NCc1ccc(F)cc1 (centres unmarked)	11.4%
O=C(N/N=C/c1ccc(O)c([N+](=O)[O-])c1)c1ccncc1	11.5%
COc1cc2[nH]c(=O)n(CCCCCC(=O)NC3CCCC3)c(=O)c2cc1OC	13.7%

SMILES	hERG current change (%, negative = inhibition) at 1uM
Cc1ccc(C)c(N2CN(Cc3cccnc3)CNC2=S)c1	19.4%
Cc1ccc(-n2c(C)nn(CC3CC3)c2=O)cc1	11.9%
COc1ccc(N2CCCC2=N)c(OC)c1.Cl	13.9%
O=C(CSc1nnc(COc2ccccc2)n1Cc1ccco1)c1ccc(F)cc1	-11.5%
Cn1nnnc1SCC(=O)N1CCN(Cc2ccccc2)CC1	7.97%
CC(=O)Oc1c(C(=O)c2nnc(C)o2)c(=O)n(C)c2ccccc12	4.51%
CN(C)CCN1C(=O)C(O)=C(C(=O)c2cc3ccccc3o2)C1c1ccccn1 (centres unmarked)	-3.13%
CS(=O)(=O)NNC(=O)c1cc2cc3ccccc3nc2s1	14.1%
N#Cc1c(/N=C/N2CCCC2)oc(-c2ccccc2)c1-c1ccccc1	5.88%
CCOc1ccc(C(=O)CCC(=O)O)cc1	-2.4%
CC(NCC(O)COC1CCC(C(C)(C)C)CC1)c1ccccc1.Cl (centres unmarked)	7.27%
Cc1c(C(=O)Nc2ccncc2)oc2c1C(=O)CC(C)(C)C2	10.5%
O=C(c1ccccc1)c1c[nH]c(C(=O)NNc2cccc(Cl)n2)c1	19.4%
CCOc1ccc(S(=O)(=O)N2CCC(C(=O)NCc3ccccn3)CC2)cc1Cl	14.6%
C=CCN(CC=C)c1cnn(-c2nc3ccccc3[nH]2)c(=O)c1Cl	-22.2%
COc1cccc(NC(=O)CN(C)C(=O)c2cccc(S(=O)(=O)N3CCN(c4ccc(F)cc4)CC3)c2)c1	-1.26%
O=C1OC(Nc2ccc(Br)cc2F)c2ccccc21 (centres unmarked)	6.54%
O=C(O)COc1ccccc1/C=N/n1c(C2CCCCC2)n[nH]c1=S	12%
CC(=O)NNC(=S)NC(=O)C(c1ccccc1)c1ccccc1	8.75%

SMILES	hERG current change (%, negative = inhibition) at 1uM
CCN(CC)CCCN=Cc1c(O)n(CCc2ccc(F)cc2)c(=O)[nH]c1=O	-40.7%
O=C(O)CC1(CC(=O)Nc2ccc(Br)cc2)CCCCC1	6.02%
Cc1cc2ncn(CCC(=O)NC3CCCC3)c2cc1C	11.1%
CSc1ccc(/C=C(\C(=O)O)c2ccc(S(=O)(=O)N3CCCCC3)s2)cc1	-40.7%
Cc1nc(=O)c(-c2ccccc2)c(C)n1-c1ccccc1Cl	5.55%
O=C(O)c1cc(NC(=O)c2cccc(N3C(=O)c4ccccc4C3=O)c2)cc(C(=O)O)c1	-3.72%
CC(C)C(NC(=O)C(c1ccccc1)c1ccccc1)c1nc2ccccc2[nH]1 (centres unmarked)	12.3%
Cc1ccc(C)c(NC(=O)CCCCCN2C(=O)[C@@H]3Cc4ccccc4CN3C2=O)c1	-9.94%
CCn1nc(C)c(CNC(=O)c2cc(COc3cncc(Cl)c3)on2)c1C	12.2%
O=C1C(=O)N(CCCn2ccnc2)C(c2cccc(Br)c2)/C1=C(\O)c1ccc2c(c1)OCCO2 (centres unmarked)	-0.598%
COc1ccc2[nH]c(=O)c(CN(C(=O)c3cccnc3)c3cccc(C)c3)cc2c1	13.4%
C=CCn1c(SCc2nc3scc(-c4ccccc4)c3c(=O)[nH]2)nnc1-c1ccccc1F	10.6%
COc1ccc(S(=O)(=O)N2CCN(C(=O)c3sccc3-c3ccccc3)CC2)cc1	-5.23%
O=C(NC1CCCc2ccccc21)C1CCN(c2c3c(nc4ncnn24)CCC3)CC1 (centres unmarked)	3.52%
COC(=O)Cn1c(C)c(/C=C/c2cc[n+](C)cc2)c2ccccc21.[I-]	9.68%
O=C1c2ccccc2C(=O)N1c1ncccn1	12.6%
CCCCOCCCNC(=O)c1ccc([N+](=O)[O-])c(C)c1	2.88%
Cc1noc(C)c1COC(=O)c1ccc(F)c(S(=O)(=O)N2CCOCC2)c1	10.3%
